Results taken from the RNAGym collection of RNA variant scans (doi:10.7554/elife.90254).
The source gives no read counts; variants with many changes may rest on few reads.

B1: LINE1-mini (parent)
chain: GGCAGAGCUCAACACAGCGUGGCAAAGUGGCUGUGGCUAGACUGCC

Variants of: B1
Assay: self-cleavage, relative activity (ratio to wild type); higher = more cleavage; in vitro, sequencing; the parent is a self-cleaving ribozyme

Row | Variant | self-cleavage
1 | G2A A12C C18U U32G | 0.05
2 | G2A C10A G36A C42G | 0.04
3 | G2A C3A C31G C37U | 0.68
4 | G2A A25U C31A U34C | 0.11
5 | G2A A6G U20A C42G C45G | 0
6 | G2A A24U G27A | 0.34
7 | G2A A24U G27U | 0.15
8 | G2A A4U G21A U28A A39C | 0.45
9 | G2A C42G U43G | 0.1
10 | G2A C8G C15G C31A | 0.09
11 | G2A A11U C15A G30A C31A U34G | 0.01
12 | G2A A25U G30A C45G | 0.11
13 | G2A G5A A24G G35U | 0.21
14 | G2A C23A C31G | 0.12
15 | G2A C37U C45G | 0.09
16 | G2A A12U C18A G19U G35A C46A | 0.08
17 | G2A G5A A41U | 0.2
18 | G2A C13U G19U C23A U32A | 0.28
19 | G2A C23G A25C G27A C46G | 0.14
20 | G2A C13U G19C G21A A25G | 1.46
21 | G2A A16U U43C | 0.03
22 | G2A A16G G21C G22A U28C | 0.1
23 | G2A C15A A25U G30U | 0.32
24 | G2A A4U G22C | 0.29

Row | Variant | self-cleavage
25 | G2A A14C U32C | 0.14
26 | G2A C10G C13G G29U | 0.04
27 | G2A C10A G27U G33U | 0.03
28 | G2A A4U G5A C8G C18A G44A | 0.03
29 | G2A C8G A25C C46U | 0.04
30 | G2A A12U C13U A16G G17U C23U C37U | 0.67
31 | G2A A4U C8U C10G C15A | 0.04
32 | G2A A26C U38C G40C | 0.02
33 | G2A C18U U38G | 0.14
34 | G2A A12U C13G U38G C42U | 0.12
35 | G2A C3U G40C | 0.49
36 | G2A C42U G44A | 0.39
37 | G2A C13U C15U G19C G30U C37U U38A | 0.08
38 | G2A C8U U9A A16U | 0.69
39 | G2A C18G C23G A24U | 0.04
40 | G2A C37A U38G | 0.12
41 | G2A C3G A4U A14G C18G U28A C42G | 0.01
42 | G2A A6G U9A G17A | 0.07
43 | G2A C8U A14G U34G | 0.05
44 | G2A A14U U20A A26C C46A | 0.08
45 | G2A G5A G17C C23G G36U | 0.24
46 | G2A A6G G40A | 0.17
47 | G2A G5A C10A | 0.11
48 | G2A C8U C18G G33A C37U | 0.05

Row | Variant | self-cleavage
49 | G2A A11U G21U | 0.17
50 | G2A A6U G22A C31A | 0.87
51 | G2A C15A C45G | 0.21
52 | G2A A11G U34A A39G U43C | 0.02
53 | G2A A12G G33C U34C | 0.14
54 | G2A A24U A25U U34G A39C | 0.11
55 | G2A C10U C37A A39U | 0.08
56 | G2A C23A G33A C42U | 0.18
57 | G2A A4U C15U G30A U32A | 0.11
58 | G2A A16C G21A U28G | 0.07
59 | G2A A16G U20G A26G C37U | 0.1
60 | G2A A14C G21A G33C | 0
61 | G2A C10A G17A C23U | 0.06
62 | G2A A16U C18U U28A | 0.07
63 | G2A A11C U20C G29U G33A A39C | 0.07
64 | G2A A26U U32A C45A | 0.1
65 | G2A G5A G27A G40A | 0.44
66 | G2A C13U A41C C46G | 0.19
67 | G2A C13U G17U G22U U43C | 0.26
68 | G2A A4G A25C C31A U32C | 0.06
69 | G2A A26U G30A A39C | 0.25
70 | G2A C3A C15G G21U C42U | 0.02
71 | G2A A14G A16C C23U C31G G44C | 0.1
72 | G2A C3U G27A C31U C37G | 0.93

Row | Variant | self-cleavage
73 | G2A C15G G44C | 0.03
74 | G2A C18U U34G | 0.14
75 | G2A A11U G21U C37U | 0.01
76 | G2A G5A U9C A12U | 0.07
77 | G2A C8A C18A | 0.1
78 | G2A C8U A12U A24G G33A | 0.03
79 | G2A A25C U32G | 0.12
80 | G2A G5U U9A A11G U28A | 0.05
81 | G2A C8U A14U C15G G35C | 0.18
82 | G2A C8G G19U | 0.06
83 | G2A A14U U20C | 0.26
84 | G2A C10G G44C | 0.1
85 | G2A A11C A39U | 0.04
86 | G2A C8U A39C G40U | 0.06
87 | G2A C23U G33A U34C | 0.04
88 | G2A A14C C37U | 0.09
89 | G2A A24U G27U G36C | 0.37
90 | G2A A12G C13U G33U A41C | 0.01
91 | G2A A16U G19A G29C U38A G40U | 0.78
92 | G2A A41C G44U | 0.16
93 | G2A A11C C18A U38C | 0.02
94 | G2A A6U A14C | 0.06
95 | G2A C10U C23A U38A | 0.02
96 | G2A C10A G30C C42G | 0.02

Row | Variant | self-cleavage
97 | G2A G5A A41U G44A | 0.11
98 | G2A C13A A39U | 0.51
99 | G2A A6U C8U C23U | 0.38
100 | G2A G5C A6U | 0.21
101 | G2A C8G U9A A16G U20A C31A C45A | 0.02
102 | G2A C10A C15A G17C | 0.08
103 | G2A A16C U28G | 0
104 | G2A C10U A14U C15U G21A G35U | 0.08
105 | G2A A16U G44A | 0.07
106 | G2A A6U C13U A24U U34C G40A | 0.2
107 | G2A G5C G33U U43A | 0.15
108 | G2A A6C U9G C46A | 0.06
109 | G2A A6G A11U U43C G44A | 0.02
110 | G2A A24U U28A U34C C37A | 0.15
111 | G2A C8U G35U | 0.88
112 | G2A C13G U20C C46A | 0.12
113 | G2A A11G G44U | 0.05
114 | G2A C13A U20A G22U G40A | 0.1
115 | G2A C3G G19A A24G A25U C45A | 0.68
116 | G2A G5C A25C G27U | 0.04
117 | G2A C10A A12G C18A G36U | 0.04
118 | G2A C3A A26C | 2.48
119 | G2A C3A A26U | 2.94
120 | G2A A6C A12G C13A C37U | 0.06

Row | Variant | self-cleavage
121 | G2A C23G A24U G36A | 0.89
122 | G2A A12U A16C C18U U28C U34C | 0.19
123 | G2A A6G U32G C45G | 0.14
124 | G2A C13G G17A C45A | 0.19
125 | G2A A12G G35A C37A | 0.17
126 | G2A A4U C8G C23U G27C U32G G36C | 0.06
127 | G2A C10A C37U | 0.02
128 | G2A C3A A4G C15A | 0.4
129 | G2A A24C G30C C45U C46G | 1.13
130 | G2A A16U G17A G19U A26C | 0.02
131 | G2A C3G C18U U32G | 0.08
132 | G2A C8G C10G G29U G30U U32G C42A | 0.03
133 | G2A C18A U34A | 0.03
134 | G2A C3A G19U C42G | 0.38
135 | G2A C37U A41C | 0.08
136 | G2A G5C A25U G44A | 0.04
137 | G2A C3A C15A G27A G30C | 2.44
138 | G2A A4U G19U C46A | 0.1
139 | G2A A14G G21A C23A U34G | 0.1
140 | G2A A6G A16G G21U C37A | 0.06
141 | G2A A16U C18G G22C A26G U32C | 0.14
142 | G2A A11U A12C U32A G33U | 0
143 | G2A C31A U34A | 0.03
144 | G2A A24U C31G | 0.08

Row | Variant | self-cleavage
145 | G2A G7A A11G A24C A39G | 0.03
146 | G2A A4U G5U A26G U28G G35U | 0.25
147 | G2A G5A G40C | 0.25
148 | G2A A4G G17A A26C U34G | 0.11
149 | G2A C8U C15U G19C A25C C37A | 0.24
150 | G2A C10U U34G | 0.11
151 | G2A C8U C13U G36U A41G | 0.03
152 | G2A A6G G33U | 0.07
153 | G2A C3U G35U G40U | 0.1
154 | G2A C10A G40C A41U | 0.02
155 | G2A C18A G27C G44C C46U | 0.03
156 | G2A G5U C13G A26C G29A G40A | 0.54
157 | G2A A16G C42G | 0.05
158 | G2A A11G C37U U43C | 0.04
159 | G2A C3G G17U A26G G40A U43C C45G | 0.07
160 | G2A G5A G33A C37G | 0.41
161 | G2A A14G G17A A25C A26G C31G C42U G44C | 0.05
162 | G2A C10U C18A G40A | 0.07
163 | G2A C13A G21U G35C C37A | 0.29
164 | G2A C13A G19U | 0.05
165 | G2A A12G G22A G33U | 0.06
166 | G2A C3U G7A | 0.65
167 | G2A A6G C10G A41C C42G | 0.02
